Data published in the supplement of paper PMC3334620.
In all, about 33,000 sequences were measured (“E-score (-0.5 to 0.5)”: median about -0.043, highest 2% from about 0.37 on). Some of the results follow.

biological target: T1, Upc2 (UniProt Q12151); assay: PBM E-score (8-mer binding enrichment) (E-score (-0.5 to 0.5)); higher = stronger / more preferred TF binding; most listed sequences are background and not binding sites; conditions: protein concentration: 200 nM; construct: GST-full length
T1 sequence: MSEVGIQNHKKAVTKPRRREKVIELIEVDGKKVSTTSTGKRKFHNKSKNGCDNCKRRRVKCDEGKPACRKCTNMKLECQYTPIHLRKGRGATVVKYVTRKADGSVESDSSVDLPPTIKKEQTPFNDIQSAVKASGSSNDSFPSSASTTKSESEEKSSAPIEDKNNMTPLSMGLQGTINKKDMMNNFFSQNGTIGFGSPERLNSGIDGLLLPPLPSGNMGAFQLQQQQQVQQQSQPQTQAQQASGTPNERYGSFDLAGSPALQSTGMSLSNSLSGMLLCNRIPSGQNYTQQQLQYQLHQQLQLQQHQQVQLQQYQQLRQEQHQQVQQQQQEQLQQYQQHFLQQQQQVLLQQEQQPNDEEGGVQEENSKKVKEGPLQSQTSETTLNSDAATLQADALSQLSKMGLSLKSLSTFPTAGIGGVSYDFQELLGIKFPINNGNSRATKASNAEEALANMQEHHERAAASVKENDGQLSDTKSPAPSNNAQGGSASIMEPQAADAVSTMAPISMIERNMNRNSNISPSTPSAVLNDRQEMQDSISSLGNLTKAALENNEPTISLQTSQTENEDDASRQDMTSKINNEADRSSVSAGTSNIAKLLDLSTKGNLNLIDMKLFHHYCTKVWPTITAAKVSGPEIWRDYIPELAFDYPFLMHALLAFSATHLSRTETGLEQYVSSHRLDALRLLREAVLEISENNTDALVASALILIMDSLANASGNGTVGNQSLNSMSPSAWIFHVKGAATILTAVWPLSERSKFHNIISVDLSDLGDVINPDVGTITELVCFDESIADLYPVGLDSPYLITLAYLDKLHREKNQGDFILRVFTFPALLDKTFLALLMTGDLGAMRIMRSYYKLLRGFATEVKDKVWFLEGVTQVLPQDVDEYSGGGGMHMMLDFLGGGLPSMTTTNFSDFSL
Outline: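 Yeast transcription factors, full-length or as DNA-binding domains, were expressed with a GST tag using PURExpress in vitro transcription/translation. At about 100-200 nM they were applied to universal all-10-mer Agilent arrays, double-stranded by primer extension on fresh or once-stripped slides. Fluorescent anti-GST detected bound protein, and masliner normalised the scans. E-scores for ungapped eight-base words, pooled with reverse complements, came from the Universal PBM Analysis Suite.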

Sequence	PBM E-score
AGCAGAGG	-0.293
ACGTTCTC	0.124
ATACCCGA	0.223
AGAGTAGG	-0.156
ACTCTTGC	-0.207
CGCTTCAC	-0.0342
GGGGAACA	-0.151
AGCAGTAA	-0.146
AGTCAAAT	-0.257
ATGATAGG	-0.322
AGGGTCCA	-0.192
GCATACGC	0.296
CCTCGCAA	0.117
GCGCGCCA	0.0851
ACATCTAA	-0.0123
AACCCTCG	0.00662
GTGGTTTA	-0.0991
CAGAGCGA	0.0014
TTATTCAA	0.157
AGGGGCGA	-0.253
CGCCGCGC	-0.164
TATCGCAA	-0.0957
CAGAAGCC	-0.188
GAGTGAAC	0.115
GGAGACAC	-0.117

Sequence	PBM E-score
CACTATAC	0.301
AATGTGTA	0.0776
AGGGACGG	-0.161
ATACCTGC	0.0206
ATCGTAAT	0.287
CCATTCAA	0.0219
AGCTAATG	-0.0484
CGAGACAA	-0.00303
ACTTAACA	-0.0773
AGCTCACG	-0.078
ACAAAGCA	-0.0865
CGCTACAC	0.0581
ATGGTTGC	-0.0503
ATGACGTA	0.123
CAAGAACG	0.296
ATGTTTTC	0.138
ATCAAATA	0.0247
GATGTGCA	-0.038
GCAGCGAA	0.1
ATTCTAGG	0.0288
AGGAACAG	-0.302
CTACAGAC	0.0491
ATCCTAAT	0.0007
ACCCAGCA	-0.0979
ATCATCTA	-0.0847

Sequence	PBM E-score
CCTTGTTC	0.021
CACCCAGA	-0.246
CATTGGCG	-0.156
ATAGTGAC	0.136
AATGTCAG	-0.178
CAAAGATC	0.067
ACTCTCTA	-0.108
GCCGACGC	-0.132
CCTAGGCC	-0.378
CAAAGGGG	-0.22
AGATTCAG	0.013
AGCCAGCG	-0.0686
CGGAGTGA	-0.102
ACTCTCCT	-0.097
ACAGCATA	0.0968
AGTTTACC	0.0436
ACCGGCAA	0.0667
GACGACAC	-0.079
AACAGCCG	-0.0317
CAGATGAA	-0.046
GCAGCGCA	-0.114
CTTTATCA	-0.102
ATACAAGG	-0.116
ATGCATCA	0.0481
AAACGCCC	0.249

Sequence	PBM E-score
CACAACTC	0.157
CAAACAAG	-0.055
GCATCTCA	-0.0439
CCCCCTTC	-0.333
CAACATTC	-0.112
TGCCACAA	-0.216
CGTTACGC	0.282
CTAAAAGC	-0.0131
AAATGTTC	0.04
CTTTGAGA	-0.0679
ATTCCGCA	-0.126
AACCCATG	-0.154
AAGAGCAT	-0.0379
ACATGGTG	-3e-05
ACGGGACC	0.0545
CTCGAGGA	0.00787
ATGGCAAG	-0.133
AGTATCAG	-0.235
AGCGCTTC	-0.0672
CCCGAACG	0.293
CAAAATGG	-0.19
TAACGGAA	0.175
CACTTGGG	-0.342
ACCCGGGT	-0.118
AAGCTCAC	-0.0662

Sequence	PBM E-score
AGATGGCT	-0.188
CCCCTCGG	0.257
ACCACGAC	-0.0339
GCTTGCGA	0.131
ATTCATTG	-0.0641
CTGATCCC	-0.111
CTACATAG	-0.201
GACCCGCC	0.0762
ATAAGTGA	-0.0169
AGCTGCCC	0.0483
AGCGTAGA	-0.0587
AATCAGGA	-0.132
GCCAATAC	0.0787
ATCACATG	-0.0786
ACAACGGA	-0.14
ATACGAGG	0.487
AGCCGCGA	-0.0696
GGACGATA	-0.181
CGTCGCGC	-0.00532
ACTCGCCG	0.159
CATCCCGC	-0.114
GTACACCA	0.123
CAGACTCA	-0.0951
GGACAGAA	0.0328
GATTCCGA	-0.0286

Sequence	PBM E-score
AAACTAGT	0.0227
ATGAGCGC	0.0303
AAAGATTA	0.0277
CGCTCTTC	0.00916
AACTCGAA	-0.0619
AGCTCATC	-0.103
GACGGGCA	-0.0772
CGCAGTAC	0.101
TCGCCTAA	0.132
CCTAACAG	-0.0517
ACGTTATG	0.128
CATGGCTA	-0.0717
GCTTATTA	0.0294
ACCGTGAG	-0.137
CTAGATCA	-0.0293
TTAAGGAA	-0.0585
ACACGAAG	0.211
AGGAAAGG	-0.308
CGTTCAAC	0.382
CTTGCTGC	-0.249
GATGCAAC	-0.121
GATCTATA	0.229
ACCTGTCC	-0.104
CTGGCCAC	-0.22
CAAACCCG	0.0894

Sequence	PBM E-score
AGTTAGCC	-0.199
GGAACTGA	-0.0729
ACGGATAG	0.0992
ACGGCCGA	0.113
CAGCGTCG	0.104
ATGTAAGG	-0.101
CCAGAGCC	-0.118
CGCTTCTC	-0.0298
GACTAATA	0.0308
AGAATGCC	-0.122
TAGAAATA	0.0621
AGTGAACA	-0.0568
TGGTCGAA	-0.151
GATTTGTA	-0.159
CGCTTTAG	0.115
GTTGTTGA	-0.0225
GCAGGACC	-0.203
CCACTATA	0.0765
GTTTCCGA	0.176
CCCATTCG	0.0753
GCCGGAGC	-0.108
GAAATGAC	-0.0962
